The test system of test [1] is Venturia inaequalis. The test is described as follows: Field trial with apple trees infected with Venturia inaequalis (Example 4). In kind it is in vivo. The settings on record: dosage 0.3%; 10 applications; 11 days after final application. As to the method: A field trial was conducted with apple trees that were naturally infected with the causal agent of scab, Venturia inaequalis. 10 treatments with an application volume of 1000 L/ha at 2 m cph were done between April 23 and June 30 at a growth stage of BBCH62 to BBCH77 in 5 to 11 days interval as outlined in Table 10.

The subject of test [2] is Venturia inaequalis. Description: In vivo preventive test on Venturia (apples), equilibrated mixtures (Example 17). The settings on record: 10 days after inoculation.
In test [3] the test system is Uromyces appendiculatus. Description: Field trials with dry beans inoculated with Uromyces appendiculatus (Example 5). The settings on record: dosage 0.3%; 5 applications; 20 days after final application. The method, then: Two field trials were conducted with dry beans that were artificially inoculated with Uromyces appendiculatus. 5 treatments and 2 inoculations were done between July 1 and July 22 at a growth stage of BBCH29 to BBCH63 in 5 to 6 days interval as outlined in Table 12. The percent disease control shown in Table 11 is the result of the last evaluation made 20 days after the final application, done by visual observation of disease symptoms. 0% means an efficacy which corresponds to that of the untreated control while an efficacy of 100% means that no disease was observed.

For test [4], the system named is Alternaria solani. The test is described as follows: In vivo preventive test on Alternaria (tomatoes) (Example 11). The settings on record: rate 0.3%; 3 days after inoculation. As to the method:
[…]® ASO (Bacillus subtilis QST713 fermentation product) and the adjuvants GEROPON® DOS-PG (sodium-2-ethylhexylsulfosuccinate), SILWET® L-77 (polyalkyleneoxide modified heptamethyltrisiloxane), GENAPOL® LRO (sodium C12/C14-fatty alcohol diglycol ether sulfate), SYNPERONIC® PE-L64 (ethoxylated/propoxylated alcohol), NIMBUS® (paraffin mineral oil) or SC-TankMix (rapeseed oil methyl ester; castor oil ethoxylated) were diluted in water to the desired concentrations and applied separately and in combination to young tomato plants. After the spray coating had dried on, the plants were inoculated with an aqueous spore suspension of Alternaria solani. Subsequently the plants were placed in an incubation cabinet at approximately 20° C. and a relative atmospheric humidity of 100%. The test was evaluated 3 days after the inoculation. 0% means an efficacy which corresponds to that of the untreated control while an efficacy of 100% means that no disease is observed.

Test [5] relates to Alternaria solani. The test is described as follows: Tomato early blight bioassay (Example 2). Conditions: GENAPOL LRO 3000 ppm. The method, then:
(§1) The present study investigated the efficacy against a variety of plant pathogens of the commercial product, […]® ASO (Bacillus subtilis QST713 fermentation product), with and without GENAPOL® LRO (sodium C12/C14-fatty alcohol diglycol ether sulfate). The application rates of […]® ASO refer to the amount of (1.67%) Bacillus subtilis QST713 contained in the product […]® ASO.
(§2) ® ASO was diluted in water to concentrations of 1000 ppm, 500 ppm, 250 ppm, and 125 ppm and applied to plants with or without GENAPOL® LRO applied at a concentration of 3000 ppm. Subsequently, the plants were inoculated with the various plant pathogens and scored for percent disease control with the following eight plant pathogen bioassays: (1) tomato late blight, Phytophthora infestans (“Late Blight”); (2) grape downy mildew, Plasmopara viticola (“Downy Mildew”); (3) cucumber powdery mildew, Sphaerotheca fuliginea (“Powdery Mildew”); (4) apple scab, Venturia inaequalis (“Scab”); (5) tomato early blight, Alternaria solani (“Early Blight”); (6) brown rust of snap bean, Uromyces appendiculatus (“Bean Rust”); (7) Asian soybean rust, Phakopsora pachyrhizi (“Soy Rust”); and (8) Botrytis grey mould on snap beans, Botrytis cinerea (“Grey Mould”).

For test [6], the system named is Uromyces appendiculatus. Description: Brown rust of snap bean bioassay (Example 2). Conditions: GENAPOL LRO 3000 ppm. As to the method:
as §1, §2

For a further test, the system named is Phakopsora pachyrhizi. Description: Asian soybean rust bioassay (Example 2). Conditions: GENAPOL LRO 3000 ppm. The method, then: as §1, §2
Another test deals with Erwinia carotovora. Description: In vitro control of Erwinia carotovora, OD600 in 96-well plates (Example 27). It counts as cell-based. Conditions: […], mixture = 95% cell-free whole broth + 5% adjuvant. The method, then: A whole broth culture of Bacillus subtilis QST713 was prepared in a soy-based medium. Bacillus subtilis cells were removed from the whole broth culture by centrifugation. […] After several hours, the OD600 in each well was measured and compared to the initial OD600 to determine the relative bacterial growth compared to that of the bacterial suspension in the untreated well.

The next test relates to Erwinia amylovora. Description: In vivo control of Erwinia amylovora on apple blossoms (Example 30). Conditions: after 6-7 days. The method, then: Apple blossoms were placed in a sugar solution and inoculated with a Fire Blight (Erwinia amylovora) bacterial suspension. The blossoms were then sprayed with the treatments shown in Table 40 at the indicated concentrations diluted in water. Streptomycin sulfate was included as a positive control. The blossoms were incubated at 23-25° C. and a relative humidity of 100%. After 6-7 days, the number of blossoms with bacterial ooze was determined, and the efficacy of each treatment was calculated. The efficacy was determined by the reduction in infected blossoms compared to the control blossoms treated with water. The test was carried out at least four times for each treatment, and the average disease control was reported.

Test [7] deals with Alternaria solani. Description: In vivo preventive test on Alternaria (tomatoes), equilibrated mixtures (Example 18). The settings on record: rate 0.12%; 3 days after inoculation.
Test [8] relates to Xanthomonas campestris pv. vesicatoria. Description: In vitro control of Xanthomonas campestris pv. vesicatoria, OD600 in 96-well plates (Example 25). It counts as cell-based. The settings on record: bacterial growth by OD600, mixture = 95% cell-free whole broth + 5% adjuvant. As to the method:
A whole broth culture of Bacillus subtilis QST713 was prepared in a soy-based medium as described above. Bacillus subtilis cells were removed from the whole broth culture by centrifugation. […] After several hours, the OD600 in each well was measured and compared to the initial OD600 to determine the relative bacterial growth compared to that of the bacterial suspension in the untreated well.

For a further test, the system named is Plasmopara viticola. The test is described as follows: In vivo preventive test on Plasmopara (grapevines) (Example 8). The settings on record: rate 0.3%; 6 days after inoculation. The method, then: […]® ASO (Bacillus subtilis QST713 fermentation product) and the adjuvants GENAPOL® LRO (sodium C12/C14-fatty alcohol diglycol ether sulfate), SPAN®20+TWEEN®20 (sorbitan monolaurate; sorbitan monododecanoate) or STICMAN® (synthetic latex) were diluted in water to the desired concentrations and applied separately and in combination to young grape plants. After the spray coating had dried on, the plants were inoculated with an aqueous spore suspension of Plasmopara viticola and remained for 1 day in an incubation cabinet at approximately 20° C. and a relative atmospheric humidity of 100%. Subsequently the plants were placed for 4 days in a greenhouse at approximately 21° C. and a relative atmospheric humidity of approximately 90%. The plants were then misted and placed for 1 day in an incubation cabinet.
The test was evaluated 6 days after the inoculation. 0% means an efficacy which corresponds to that of the untreated control, while an efficacy of 100% means that no disease is observed.

On to “sodium C12/C14-fatty alcohol diglycol ether sulfate [GENAPOL ® LRO]”, for which the “Disease Control [%] Found” value in the test with Venturia inaequalis [1] was 11%. Further, the “Efficacy in % Found” value in the test with Venturia inaequalis [2] (rate 0.03%) was 33%; in the test on Venturia inaequalis [2] (rate 0.06%), 53%; in the test with Alternaria solani [4], 0%; with Erwinia carotovora (rate 0.11%), 13%; in the test with Erwinia carotovora (rate 0.22%) it was 1%; in the test on Erwinia carotovora (rate 0.44%), 36%. Besides, the “Efficacy in % Found” value in the test on Alternaria solani [7] is on record as 27%; in test [8] (rate 0.11%), 57%; in test [8] (rate 0.22%) it was 63%; in test [8] (rate 0.44%), 41%; in [8] (rate 0.88%), 53%; with Plasmopara viticola it was 59%. Further, the “Disease Control [%] Mean of 2 Trials Found” value with Uromyces appendiculatus [3] came out at 5%. Moreover, the “Percent Disease Control Early Blight” value with Alternaria solani [5] is reported as 0%. In the test on Uromyces appendiculatus [6], the “Percent Disease Control Bean Rust” value is reported as 40%. Moreover, the “Percent Disease Control Soy Rust” value in the test on Phakopsora pachyrhizi is 30%. For the same substance, the Efficacy in % with Erwinia amylovora (concentration 0.5 % applied to blossoms) is given as 15%; in the test with Erwinia amylovora (concentration 1 % applied to blossoms), 8%.

For the origin of these results see patent publication US9745597B2, “Compositions and methods for controlling fungal and bacterial diseases in plants” (priority 2014, dated 2017).
